Measurements as given in the BET-seq Pho4 binding data (Le et al. 2018).
The other results are listed elsewhere or left out. The energies were worked out here from pooled read counts, against the library average; single values are noisy.

What follows are sequences tested against T1, Pho4 (S. cerevisiae) (UniProt P07270) (assay: relative binding free energy (BET-seq); higher = weaker binding). Settings: reference: library average.
T1 sequence: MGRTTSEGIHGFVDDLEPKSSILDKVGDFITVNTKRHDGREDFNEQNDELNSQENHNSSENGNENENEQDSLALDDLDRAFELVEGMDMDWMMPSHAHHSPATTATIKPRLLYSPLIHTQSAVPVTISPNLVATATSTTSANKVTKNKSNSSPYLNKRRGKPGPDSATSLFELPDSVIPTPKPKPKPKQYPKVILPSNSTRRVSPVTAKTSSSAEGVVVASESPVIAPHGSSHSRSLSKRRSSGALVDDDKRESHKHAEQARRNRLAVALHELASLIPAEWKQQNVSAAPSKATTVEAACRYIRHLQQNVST
In the case of ATGGTCACGTGCGTCG, the “relative binding free energy” value is reported as 0.02 kcal/mol.
In the case of TGTGACACGTGTGGAG, the “relative binding free energy” value is reported as -0.04 kcal/mol.
In the case of TTATCCACGTGGGAGT, the “relative binding free energy” value is reported as 0 kcal/mol.
GGGGCCACGTGTTAAT was tested, and the “relative binding free energy” value was 0.06 kcal/mol.
For TGTGGCACGTGTAGGT, the “relative binding free energy” value was -0.03 kcal/mol.
For TAAGACACGTGTGTGA, the “relative binding free energy” value was 0.06 kcal/mol.
For AGGTGCACGTGACGGA, the “relative binding free energy” value was -0.03 kcal/mol.
In the case of ACGGGCACGTGTGTAT, the “relative binding free energy” value is reported as -0.06 kcal/mol.
For AAGGACACGTGTTTGG, the “relative binding free energy” value was 0.04 kcal/mol.
For TCTATCACGTGGTGCG, the “relative binding free energy” value was 0.17 kcal/mol.
AATACCACGTGTGTGT was tested, and the “relative binding free energy” value was -0.1 kcal/mol.
In the case of CGGGTCACGTGTGTCG, the “relative binding free energy” value is reported as 0.12 kcal/mol.
GTGGGCACGTGAGTTA was tested, and the “relative binding free energy” value was 0.15 kcal/mol.
In the case of AGTGGCACGTGAGAGT, the “relative binding free energy” value is reported as 0.17 kcal/mol.
In the case of TTTCACACGTGTGAGA, the “relative binding free energy” value is reported as 0.19 kcal/mol.
In the case of CTTGACACGTGGGTGG, the “relative binding free energy” value is reported as -0.08 kcal/mol.
In the case of TCGTGCACGTGAAGGA, the “relative binding free energy” value is reported as 0.22 kcal/mol.
For CGGTTCACGTGCTGGT, the “relative binding free energy” value was 0.15 kcal/mol.
In the case of CTAGACACGTGGGTTT, the “relative binding free energy” value is reported as -0.08 kcal/mol.
CGGGTCACGTGCTGGA was tested, and the “relative binding free energy” value was 0.04 kcal/mol.
For AAGTTCACGTGTAGGA, the “relative binding free energy” value was 0.4 kcal/mol.
In the case of CGGTTCACGTGGGTTT, the “relative binding free energy” value is reported as 0.25 kcal/mol.
In the case of CGTGACACGTGATGTG, the “relative binding free energy” value is reported as 0.09 kcal/mol.
GGTAACACGTGGGATT was tested, and the “relative binding free energy” value was 0.14 kcal/mol.
For TGAATCACGTGTATAG, the “relative binding free energy” value was 0.28 kcal/mol.
GGTTGCACGTGTCGGA was tested, and the “relative binding free energy” value was 0 kcal/mol.
In the case of TGGTCCACGTGAGCGG, the “relative binding free energy” value is reported as 0.08 kcal/mol.
In the case of CCATTCACGTGGGTGT, the “relative binding free energy” value is reported as 0.12 kcal/mol.
AGGATCACGTGTGTTT was tested, and the “relative binding free energy” value was 0.19 kcal/mol.
ATCTGCACGTGGAAGG was tested, and the “relative binding free energy” value was 0 kcal/mol.
GGGTCCACGTGTTATA was tested, and the “relative binding free energy” value was 0.03 kcal/mol.
TGCGTCACGTGGTGCA was tested, and the “relative binding free energy” value was 0.06 kcal/mol.
GCGTGCACGTGGTGGT was tested, and the “relative binding free energy” value was -0.12 kcal/mol.
ATCAGCACGTGATGTG was tested, and the “relative binding free energy” value was -0.02 kcal/mol.
In the case of GGTCTCACGTGGAGGG, the “relative binding free energy” value is reported as 0.21 kcal/mol.
In the case of GGGATCACGTGTTCAG, the “relative binding free energy” value is reported as 0.33 kcal/mol.
With GTGTACACGTGGGAGG the “relative binding free energy” value was -0.08 kcal/mol.
In the case of CGGTCCACGTGTTCGG, the “relative binding free energy” value is reported as 0.1 kcal/mol.
In the case of ATTTGCACGTGGTTAA, the “relative binding free energy” value is reported as -0.17 kcal/mol.
With TGTCTCACGTGTGGAT the “relative binding free energy” value was 0.24 kcal/mol.
For GATTTCACGTGCTGAT, the “relative binding free energy” value was 0.37 kcal/mol.
In the case of AATTTCACGTGCGGAT, the “relative binding free energy” value is reported as 0.23 kcal/mol.
With TCTTTCACGTGGTTTG the “relative binding free energy” value was 0.22 kcal/mol.
TATGGCACGTGGTAAC was tested, and the “relative binding free energy” value was -0.02 kcal/mol.
TGCAACACGTGAGTGT was tested, and the “relative binding free energy” value was 0.2 kcal/mol.
TCTGGCACGTGGTAGA was tested, and the “relative binding free energy” value was -0.14 kcal/mol.
With CGTGTCACGTGAGTGT the “relative binding free energy” value was 0.23 kcal/mol.
In the case of GTGACCACGTGGGCGG, the “relative binding free energy” value is reported as -0.18 kcal/mol.
In the case of TATTGCACGTGTGCTG, the “relative binding free energy” value is reported as -0.08 kcal/mol.
With GAGATCACGTGTTACG the “relative binding free energy” value was 0.27 kcal/mol.
In the case of TGTTGCACGTGTTAAT, the “relative binding free energy” value is reported as 0.13 kcal/mol.
For TAATTCACGTGGGACT, the “relative binding free energy” value was 0.16 kcal/mol.
With AGAAGCACGTGTGGTA the “relative binding free energy” value was -0.09 kcal/mol.
With CCAAGCACGTGTGGGT the “relative binding free energy” value was 0.05 kcal/mol.
With TAGTACACGTGAGTTG the “relative binding free energy” value was 0.34 kcal/mol.
TGGTCCACGTGTTGGC was tested, and the “relative binding free energy” value was -0.01 kcal/mol.
With CTGTACACGTGTGGGA the “relative binding free energy” value was 0.15 kcal/mol.
ATATACACGTGGTGTA was tested, and the “relative binding free energy” value was -0.16 kcal/mol.
ATGTGCACGTGCGAGT was tested, and the “relative binding free energy” value was -0.12 kcal/mol.
TATGGCACGTGGTTGA was tested, and the “relative binding free energy” value was -0.11 kcal/mol.
AGGGTCACGTGGCATG was tested, and the “relative binding free energy” value was 0.11 kcal/mol.
AGTCGCACGTGGGGCT was tested, and the “relative binding free energy” value was -0.26 kcal/mol.
With TTATACACGTGGGCTG the “relative binding free energy” value was -0.2 kcal/mol.
TGGCGCACGTGATGTT was tested, and the “relative binding free energy” value was 0.07 kcal/mol.
For GCGAGCACGTGGGGCA, the “relative binding free energy” value was -0.19 kcal/mol.
In the case of ATGGCCACGTGGCGTT, the “relative binding free energy” value is reported as -0.27 kcal/mol.
In the case of TGTGTCACGTGTGTCT, the “relative binding free energy” value is reported as 0.14 kcal/mol.
For TGAATCACGTGATTTA, the “relative binding free energy” value was 0.25 kcal/mol.
AGGCTCACGTGTAATT was tested, and the “relative binding free energy” value was 0.34 kcal/mol.
With CAAGTCACGTGTCGTG the “relative binding free energy” value was 0.22 kcal/mol.
For AGGTGCACGTGTTTGC, the “relative binding free energy” value was 0.06 kcal/mol.
In the case of TGGTACACGTGGCGGT, the “relative binding free energy” value is reported as 0.05 kcal/mol.
For ATGGGCACGTGGATAG, the “relative binding free energy” value was -0.21 kcal/mol.
